Results: the RNAGym collection of RNA variant scans (doi:10.1073/pnas.2313332121)
Variants at the floor of the assay are shown more often than the library holds them.

B1: TPR 5TU (parent)
chain: GGAUCUUCUCGAUCUAACAAAAAAGACAAAUCUGCCACAAAGCUUGAGAGCAUCUUCGGAUGCAGAGGCGGCAGCCUUCGGUGGCGCGAUAGCGCCAACGUUCUCAACUAUGACACGCAAAACGCGUGCUCCGUUGAAUGGAGUUUAUCAUG

Variants of: B1
Test: polymerase ribozyme fitness, log enrichment relative to wild type (log ratio); higher = more active; in vitro selection for triplet polymerase activity
How it was run: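 The heterodimeric triplet polymerase ribozyme's subunits were each mutagenized into PCR-built libraries and transcribed. Every library was selected once, in triplicate, by annealing with a biotinylated primer, the partner subunit and triplets, incubating frozen at −7 °C, gel-excising extended constructs, capturing on streptavidin beads and running RT-PCR. Input and output libraries were Illumina-sequenced, with genotypes kept only at ≥10 input reads and ≥1 read per output. Fitness, from inverse-variance-weighted replicate averages, is the base-2 logarithm of genotype enrichment over wild-type enrichment.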

Variant	polymerase ribozyme fitness (log ratio)
C5A G46C G74A U77C C93U	≤ -4.2
C5G A16C C43A C57U C63U G86A G88C	≤ -4.2
C5G A23C C43A C85A C95G A98G G100A	≤ -4.2
U4A G11C A20U A28U G143U U146G	≤ -4.2
C5A A52U C87A	≤ -4.2
U4G C69G G143U	≤ -4.2
C5G U56A G65U G70C A107G A121U U144C	≤ -4.2
U4C U15C C35G A40U C76A C93A A115U	≤ -4.2
C5U C18G U44G U53G U55A G68A G92U C118U G143A	≤ -4.2
U4C A21U C57G A60G C85A A89C G94A	-2.06
U4C C5G A20U	-1.25
C5G A12G A21C A26U C38G U77A C118U	≤ -4.2
U4A C132G U139G	-3.71
C5A U13C A30C U45A A49U G58C C76A C95U G136U G141C	≤ -4.2
U4A A21U C38U C85A C87G C103A	≤ -4.2
U4C A16G C18A A28C A30C C43U U53A C75G A97G C103A A119U U144C	≤ -4.2
U4C C32U U144G A150G	≤ -4.2
U4C G46U C87G	≤ -4.2
U4A A19C A41U U56C G124A G143A	-3.84
U4G U56A A60C C76G A91C C95U A142C	≤ -4.2
C5A G92A	-1.42

Variant	polymerase ribozyme fitness (log ratio)
U4G A28C C38G U45G C87U C116G G126A G152A	≤ -4.2
U4A U45A C57U A91C	≤ -4.2
U4C A12U C14U G25C U82G A89G G92U C96A A137C	≤ -4.2
U4G U56G C85A G141C	-2.61
U4G A19U A60C A66C G71A C76A G133C	≤ -4.2
C5G C14G A23C A64C A91U A147C	≤ -4.2
C5A G11C G48U C76A C99A	≤ -4.2
U4G A23U U44G C51U C76G C96U U148C	≤ -4.2
C5A A20C A23U A24G G88A C96G G124U C129A	≤ -4.2
U4C C5A C10U U33A G88C C116U G140A	≤ -4.2
C5G C38A G58U	-1.06
U4G U6A A47C A60G C72A G88C G124U U134A	≤ -4.2
U4A A41C G126C	-1.9
U4G G25C C27U C75G U78C G80A G92A G100A C108U U109C	≤ -4.2
C5G G46A G92C	-4.13
C5A U44A G81A G83C C85G G133C G141C	≤ -4.2
C5A A17U U45A G71C G84A A89U U104G U145G	≤ -4.2
C5U A21U	1.4
C5U A52C C76U C93A C116U C123G	-3.61
U4G G11U A16C A29C C57U C87A C95U C99A C132G U139A U146C	≤ -4.2
C5A U45G C85G	-2.33

Variant	polymerase ribozyme fitness (log ratio)
U4A A24U U56G U61G A64C G65A A66G G88A C96U C105G	≤ -4.2
U4G U55G	-0.607
U4A U33G C69A C114A C123G U145C	≤ -4.2
U4C A20U C85A A110G U135C G136U G143C	≤ -4.2
U4C U6A G11U C36U A91U C96A U104G U144A A150C	≤ -4.2
C5G U31C A49C G92A	≤ -4.2
C5G G11U A73U C85G G124A U144A	≤ -4.2
C5A U61A U102G	≤ -4.2
U4A A19U C69U A91U C95G C103U G140C	≤ -4.2
C5G G25U G86A G94C U101C A122G G126A U144C	≤ -4.2
C5G U7A U33G A91G C93U C118G A122G U144G	≤ -4.2
C5G C85A	-1.7
U4C A47U C85U C105A C116G G143A A147U	≤ -4.2
C5A A16C G25U C57G C93A	≤ -4.2
U4A A22C U31G G67U A97G	≤ -4.2
C5G A26U U53G G58C G92U C116G A119G	≤ -4.2
C5G C54A A89G C116A C123U U145A	≤ -4.2
C5A A47U C76G G94C U101G	-4.01
C5G A40C C69A G70U A89C	≤ -4.2
C5G U9A A37C A64G C69A G83C C96U	≤ -4.2
C5G C14G G48C C57A A73C C87U C118U A121G C123U G140C	≤ -4.2

Variant	polymerase ribozyme fitness (log ratio)
U4G A16G C54U G62C G71A U101G C105U A142G U144A	≤ -4.2
C5A A39U A138G	≤ -4.2
C5G C8G A20C C54U	≤ -4.2
U4A C76A G86C A122C	-3.26
C5G C10G C18G A19G A23C C35G G80U G83C G128C U134A U145C U146G	≤ -4.2
C5U A12U A29G G58A C93G U144G	≤ -4.2
U4C A22U A37U A49C G100U	≤ -4.2
U4G C5A C14G A41C U53A A64U C79U C93A U109A	≤ -4.2
C5G U44A U53A C57U U77A U78A G84U C114U A122C C123A C125A U146C	≤ -4.2
C5A G58A A91C C103G	≤ -4.2
U4C U53A G70C C85G C118U C123U G141A U151C	≤ -4.2
C5G C18U A21G A40C C57A G58U G94A C99U C108U G143U	≤ -4.2
C5U A26G A52U G59A A60G A97U U144A	≤ -4.2
U4C C54G C85A C99A A122U	≤ -4.2
C5G C103A G117A	-2.88
U4C C5U A20C C87A A98C G133U U148G	≤ -4.2
C5G A19G A24C A40U U55A G83U G86U	≤ -4.2
C5A C8U C14G A37U A52G G83A U148G	≤ -4.2
U4A U6G A30G G68A G88C A120U U151A	≤ -4.2
U4A U9C A22U C76G U78G C93A G136U	≤ -4.2
